In PubChem BioAssay AID602332 (National Center for Advancing Translational Sciences (NCATS), 2012):
“And” between values parts separate entries of the source, which are not always exact repeats. Equal entries are not always repeated. Out of some 420,000 compounds screened, about 75 (0.02%) were called active. The call rests on the fitted dose curve; in most records, active means well fitted activation curve with a large enough effect; inconclusive means small, poorly fitted or top-dose-only effect; inactive means no such curve, though single readings can be large or run the other way. The entries are a selection whose mix differs from that of the whole data set. Where a structure was tested more than once in an assay, its records may differ in their call.

Assay: qHTS for Inducers of the Endoplasmic Reticulum Stress Response (ERSR) in Human Glioma: qHTS; further: nearly all actives have a fitted effect of over 35% in size; on activation: % of control where 0% means no effect
Settings: U87-MG GRP78 promoter luciferase reporter, 16 h; activation: active compounds read high
Method in brief: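 Stably transfected U87-MG human glioma cells carrying a GRP78-based luminescent sensor were seeded at 1000 cells/well, pin-dosed with compounds and incubated 16 h. Luciferase reagent was then added, and end-point luminescence was read after 10 min at room temperature.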
Potency means the concentration at half of the fitted maximal effect.

| SMILES | activation | Potency |
| --- | --- | --- |
| COC(=O)c1nn(-c2ccc(-c3ccccc3)cc2)cc1O | inactive: -15.1% |  |
| COc1cc(/C=C/C(=O)c2ccc3c(c2)OCO3)cc(OC)c1OC |  | active: 28.2 µM |
| O=C1C(SCCO)=C(SCCO)C(=O)c2ccccc21 | inactive: -11.7% [middle of 5 runs] |  |
| C[C@]12CCC3c4ccc(O)cc4CCC3C1CCC2OC(=O)CCC1CCCC1 (stereo partly specified) | inactive: -5.94% |  |
| Cc1ccc(F)c(C2C3C=CCC(c4ccccc4)C3C(=O)N2Cc2ccccc2)c1 (stereo unspecified) | inactive: -10.8% |  |
| Clc1ccc(-n2nnnc2Sc2ncnc3sccc23)cc1 | inactive: -16.5% |  |
| CCOC(=O)C1=C(O)C(=O)N(Cc2ccccc2)C1 | inactive: 1.65% |  |
| COc1ccc(/C=C/C(=O)c2c(O)ccc3c(C)cc(=O)oc23)cc1 | inactive: -3.37% |  |
| Cc1ccc(/C=C/c2nc3ccccc3s2)s1 | inactive: -17% |  |
| O=S1(=O)C=C(Sc2nc3ccccc3s2)c2ccccc21 | inactive: -13.5% |  |
| O=C1c2cccc3cccc(c23)C(=O)N1CC1CCN(CC(O)COc2ccc3ccccc3c2)CC1 (stereo unspecified) | inactive: -18.8% |  |
| CCOC(=O)/C(=C/c1ccc(OC(F)F)cc1)C1=Nn2c(nnc2-c2ccc(Cl)cc2)SC1 | inactive: -13.6% |  |
| C/C(=N\NC(=O)c1ccccc1O)c1cccs1 | inactive: -15.2% |  |
| C[C@H](CO)N1C[C@H](C)[C@@H](CN(C)C(=O)Nc2ccc(C(F)(F)F)cc2)Oc2c(NC(=O)c3ccncc3)cccc2C1=O | inactive: -1.3% |  |
| O=C1CCc2ccc(OCCCCN3CCN(c4cccc(Cl)c4Cl)CC3)cc2N1 | inactive: -3.19% |  |
| O=C(Nc1ccc(NC(=O)c2ccco2)nc1)c1ccco1 | inactive: -14.2% |  |
| O=C(Cn1ncc(Cl)c(Cl)c1=O)c1ccc(Cl)cc1 | inactive: -15.2% |  |
| Cc1cc(C)nc(SCc2ccc(C(=O)NNC(=O)Nc3cccc(Cl)c3)cc2)n1 | inactive: -14.9% |  |
| CC(C)=CCc1c2c(c3occ(-c4ccc(O)cc4)c(=O)c3c1O)C=CC(C)(C)O2 | inactive: -9.13% |  |
| CC12CCC=CC1C(c1ccc3ccccc3c1Br)N(Cc1ccccc1)C2=O (stereo unspecified) | inactive: 6.05% |  |
| Cc1ccc(-c2cc(C(=O)N3CCOCC3)no2)cc1 | inactive: -14.7% |  |

| SMILES | activation | Potency |
| --- | --- | --- |
| Cc1ccc(C(=O)CCS(=O)(=O)c2ccc(F)cc2)cc1 | inactive: -17.3% |  |
| CCCCNc1ccc(C(=O)OCCN(C)C)cc1 | inactive: 0.494% and inactive: -0.539% and inactive: -2.92% |  |
| N#C/C(=C\c1ccc(OCc2cccc(C(=O)O)c2)cc1)C(=O)NCc1ccco1 | inactive: -14.6% |  |
| COc1cc(/C=N/Nc2ccc(Cl)c(C(=O)O)c2)ccc1OC(=O)c1ccco1 | inactive: -14% |  |
| c1cncc(CNc2ncnc3ccc(-c4ccoc4)cc23)c1 | inactive: -0.142% |  |
| O=C(C[C@H]1C/C=C\C[C@H](NC(=O)OCC2c3ccccc3-c3ccccc32)C(=O)O[C@H](c2ccccc2)CNC1=O)N[C@H](CO)Cc1ccccc1 |  | active: 28.2 µM |
| Cc1ccc(-n2nc3c(N4CCC(C(=O)NCc5ccccc5C)CC4)nnc(C)c3c2C)cc1 | inactive: -19.3% |  |
| Cn1c2ccccc2c2cc(C(=O)NNC(=O)CCl)sc21 | inactive: -16.2% |  |
| CNC1CCC(c2ccc(Cl)c(Cl)c2)c2ccccc21 (stereo unspecified) | inactive: -9.95% |  |
| CC(C)(Sc1ccc(CCN(CCCCC2CCCCC2)C(=O)NC2CCCCC2)cc1)C(=O)O | inactive: -2.55% and inactive: -4.29% and inactive: 0.798% |  |
| C=C(C)COc1ccc(-c2[nH]ncc2Oc2ccccc2OCC)c(O)c1 | inactive: -18.1% |  |
| C/C(=C\c1ccc(C(=O)O)cc1)c1ccc2c(c1)C(C)(C)CCC2(C)C | inactive: -4.99% [middle of 4 runs] |  |
| COc1ccc(C(=O)Nc2ccc(C)cn2)c(OC)c1 | inactive: -15.6% |  |
| COc1cc(NC(C)CCCN)c2ncccc2c1 (stereo unspecified) | inactive: -7.27% and inactive: -10.3% |  |
| CC(C)c1ccc(Cn2ccc3c4c(N)nc(NC5CC5)nc4ccc32)cc1 | inactive: -11.7% |  |
| CN1c2ccccc2C(C)(C)C12C=Cc1cc(O)ccc1O2 (stereo unspecified) | inactive: -1.77% |  |
| CC[C@H](C)[C@H]1O[C@]2(CC[C@@H]1C)C[C@@H]1C[C@@H](C/C=C(\C)[C@H](O[C@@H]3C[C@H](OC)[C@H](O[C@@H]4C[C@H](OC)[C@@H](O)[C@H](C)O4)[C@H](C)O3)[C@@H](C)/C=C/C=C3\CO[C@@H]4[C@H](O)C(C)=C[C@@H](C(=O)O1)[C@]34O)O2 | inactive: -10.1% |  |
| CCOC(=O)COc1cc(Br)c(/C=N/Nc2ccccc2)cc1OC |  | active: 35.5 µM |
| CC(C)(C)c1ccc(C(O)CCCN2CCC(C(O)(c3ccccc3)c3ccccc3)CC2)cc1 (stereo unspecified) | inactive: -4.96% [middle of 4 runs] |  |
| Cc1cc(=O)oc2c(O)c(O)ccc12 |  | active: 28.2 µM |
| O=C(CCl)N(CCc1ccccc1)CCc1ccccc1 | inactive: -18.9% |  |

| SMILES | activation | Potency |
| --- | --- | --- |
| O=[N+]([O-])c1cc(S(=O)(=O)NCCN2CCOCC2)ccc1Sc1nnnn1-c1ccccc1 | inactive: -14.5% |  |
| CC(C)c1ccc2c(c1)c(SC(C)(C)C)c(CC(C)(C)C(=O)O)n2Cc1ccc(Cl)cc1 | inactive: 6.07% and inactive: 15.3% |  |
| CCOc1ccccc1CNC(=O)C1CCN(c2nnc(C)c3c(C)n(-c4ccc(C)cc4)nc23)CC1 | inactive: -5.22% |  |
| COc1cccc2sc(N(CCCN(C)C)C(=O)CCS(=O)(=O)c3ccccc3)nc12 | inactive: -15.4% |  |
| O=C1C2C(c3ccccc3)CC=CC2[C@H](c2ccc3ccccc3c2)N1Cc1ccccc1 (stereo partly specified) | inactive: -2.86% |  |
| Cc1cnc(NC(=O)c2ccc(OCC3CCCO3)cc2)s1 (stereo unspecified) | inactive: -15.4% |  |
| CN[C@@H]1CC[C@H](c2ccc(Cl)c(Cl)c2)c2ccccc21 | inactive: -5.03% |  |
| O=C(Nc1ccc(NC(=O)c2cccs2)cn1)c1ccco1 | inactive: -13.5% |  |
| c1cc2c(cc1C1CCCCC1)c1c3n2CCCNC3CCC1 (stereo unspecified) | inactive: -18.8% |  |
| Cc1cc(C)nc(Sc2ncnc(N)c2[N+](=O)[O-])n1 | inactive: -16.1% |  |
| CCN(CC)CCCNC(=O)CSc1c2c(nc3cc(Cl)ccc13)CCCC2 | inactive: -11.5% and inactive: -15.6% |  |
| CC(C)(C)n1ncc2c(=O)n(CC(=O)NCc3ccccc3)cnc21 | inactive: -12.5% |  |
| C[C@H]([C@H](C)N1CC(=O)NC(=O)C1)N1CC(=O)NC(=O)C1 | inactive: 17.3% |  |
| CCS(=O)(=O)c1ncc(Cl)c(C(=O)Nc2ccc(S(=O)(=O)N3CCCC(C)C3)cc2)n1 (stereo unspecified) | inactive: -18.6% |  |
| N/C(=N\OC(=O)c1ccc2ccccc2c1)c1ccccn1 | inactive: -14.1% |  |
| CN(C)S(=O)(=O)n1cc(/C=C(\NC(=O)c2ccccc2Cl)C(=O)NCCCn2ccnc2)c2ccccc21 | inactive: -4.52% |  |
| N#C/C(=C\c1ccc(O)c(O)c1)C(=O)NCc1ccccc1 |  | active: 25.1 µM |
| C#C[C@]1(O)CC[C@H]2[C@@H]3CCC4=CC(=O)CC[C@@H]4[C@H]3CC[C@@]21CC |  | active: 20 µM |
| O=C(/C=C/c1ccc(O)c(O)c1)O[C@@H]1C[C@](O)(C(=O)O)C[C@@H](O)[C@H]1O | inactive: -3.72% |  |
| Cc1ccccc1C(=O)O/N=C(\N)c1ccccc1 | inactive: -16% |  |
| N.N.N.N.N.N.N.N.N.N.N.N.N.N.O.O.[Ru+4].[Ru+5].[Ru+5] | inactive: -10.8% |  |

| SMILES | activation | Potency |
| --- | --- | --- |
| CN[C@H]1CC[C@@H](c2ccc(Cl)c(Cl)c2)c2ccccc21 | inactive: -6.63% [middle of 4 runs] |  |
| CCCCN(C)C(=O)c1cc2cc3ccc(OC)cc3nc2s1 | inactive: -13.7% |  |
| CC(C)(C)c1cc(O)c(C(C)(C)C)cc1O | inactive: 2.38% |  |
| COc1cc(/C=N/NC(=O)Cn2nc([N+](=O)[O-])cc2C)cc(Br)c1OCc1ccccc1 | inactive: -12.6% |  |
| O=C1CC(c2ccco2)CC2=C1C1c3ccccc3C(=O)N1c1ccccc1N2 (stereo unspecified) |  | active: 28.2 µM |
| CCCCCCN(C(=O)CCl)c1ccccc1 | inactive: -15.3% |  |
| COc1cc2nc(Nc3ccc(F)cc3)nc(N)c2cc1OC | inactive: 2.86% |  |
| CCCCC(CC)CN=C(N)NC(N)=NCCCCCCN=C(N)NC(N)=NCC(CC)CCCC (stereo unspecified) | inactive: -12.7% and inactive: -11.7% |  |
| COc1ccc(Cl)cc1C(=O)NCCc1ccc(S(=O)(=O)NC(=O)NC2CCCCC2)cc1 | inactive: -4.12% [middle of 7 runs] |  |
| C=CC[C@@H](CC(=O)OC(C)(C)C)C(=O)OC[C@@H]1CCCN1C(=O)[C@@H](CC=C)CC(=O)N[C@H](CO)Cc1ccccc1 | inactive: -4.24% |  |
| CC(=O)c1c(C)[nH]c(C(=O)Nc2ccc(C)cn2)c1C | inactive: -15.5% |  |
| O=C(Oc1ccc(-c2nc(-c3ccccn3)no2)cc1)c1ccccc1 | inactive: -14.8% |  |
| CC1(C)C(=O)C=C[C@@]2(C)C1C=C[C@@]1(C)C2CC[C@@]2(C)C(c3ccoc3)OC(=O)C3OC312 (stereo partly specified) | inactive: -12.6% |  |
| Cc1ccccc1C(=O)N1CCN(c2ccc(NC(=O)c3ccco3)cc2Cl)CC1 | inactive: -13.4% |  |
| CC(=O)OC[C@H]1O[C@@H](Sc2cccc3cccnc23)[C@H](OC(C)=O)[C@@H](OC(C)=O)[C@H]1OC(C)=O | inactive: 5.44% |  |
| CCc1ccc(/C=C/C(=O)c2c(C)cc(C)[nH]c2=O)cc1 | inactive: -15.3% |  |
| COc1ccc(/C=C/c2nc3ccccc3c(=O)o2)cc1 | inactive: -18.8% |  |
| OC(CNCC1CCCO1)Cn1c2ccc(Cl)cc2c2cc(Cl)ccc21 (stereo unspecified) | inactive: -17.1% |  |
